For 21 compounds, cell count results are on record in the supplement of paper PMC4604168 (melanoma cell lines).

The other results are listed elsewhere or left out. Many values rest on one well or one pass, so single values are uncertain.

Test systems include 501Mel; A101D; A2058; A375.
Common to all, as to experiment: cell count relative to DMSO control; melanoma cells; higher = more viable cells
Settings in all cases: library dose: standard library concentration; 72 h
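Note: cells treated in 1,536-well plates, then fixed and DAPI-stained, with nuclei counted from automated high-throughput microscope images.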

Turning to `CO[C@H]1C[C@@H]2CC[C@@H](C)[C@@](O)(O2)C(=O)C(=O)N2CCCC[C@H]2C(=O)O[C@H]([C@H](C)C[C@@H]2CC[C@@H](OCCO)[C@H](OC)C2)CC(=O)[C@H](C)/C=C(\C)[C@@H](O)[C@@H](OC)C(=O)[C@H](C)C[C@H](C)/C=C/C=C/C=C/1C` [everolimus] + O=C1NC(=O)/C(=C/c2ccc(-c3ccc(F)cc3O)o2)S1 [AS252424] (first compound 0.1 µM, partner dose 5 µM), the cell count amounted to 62.3% in the experiment on 501Mel, 90.1% with A101D, 72.4% in the experiment with A2058 and 103% with A375.

In the case of `Nc1nc(F)nc2c1ncn2[C@@H]1O[C@H](CO)[C@@H](O)[C@@H]1O` [fludarabine] + CCN(CC)CCCCNc1ncc2cc(-c3cc(OC)cc(OC)c3)c(NC(=O)NC(C)(C)C)nc2n1 [PD173074] (first compound 1 µM, partner dose 0.5 µM), the cell count worked out at 3.4% with 501Mel, 80.2% with A101D, 83.5% in the experiment with A2058 and 46.5% in the experiment with A375.

With `CC(=O)O[C@@]12CO[C@@H]1C[C@H](O)[C@@]1(C)C(=O)[C@H](O)C3=C(C)[C@@H](OC(=O)[C@H](O)[C@@H](NC(=O)OC(C)(C)C)c4ccccc4)C[C@@](O)([C@@H](OC(=O)c4ccccc4)[C@H]21)C3(C)C` [Docetaxel] + COC(=O)c1sccc1S(=O)(=O)Nc1ccc(Nc2ccccc2)cc1OC [GSK0660] (first compound 0.0005 µM, partner dose 5 µM), the cell count with 501Mel worked out at 36.8%; in the experiment on A101D it was 51.5%; in the experiment with A2058 it was 5.73%; in the experiment on A375 it was 81.4%.

For the compound `Nc1nc(F)nc2c1ncn2[C@@H]1O[C@H](CO)[C@@H](O)[C@@H]1O` [fludarabine] + O=C(O)C(=O)Nc1sc2c(c1C(=O)O)CCNC2 [TCS401] (first compound 1 µM, partner dose 8.33333 µM), the cell count with 501Mel is 4.54%; in the experiment on A101D, 105%; in the experiment on A2058 it was 91.6%; in the experiment on A375, 65.7%.

For `Nc1ncn([C@H]2C[C@H](O)[C@@H](CO)O2)c(=O)n1` [decitabine] + c1cc(-c2cnn3cc(-c4ccc(OCCN5CCCCC5)cc4)cnc23)ccn1 [Dorsomorphin] (first compound 0.5 µM, partner dose 2 µM), the cell count was 58.8% in the experiment with 501Mel, 85.3% in the experiment with A101D, 49.9% with A2058 and 80.8% with A375.

As for `Nc1ncn([C@H]2C[C@H](O)[C@@H](CO)O2)c(=O)n1` [decitabine] + CC(C)CCN1c2nc(Nc3cc(F)c(O)c(F)c3)ncc2N(C)C(=O)C1C [BID1870] (first compound 0.5 µM, partner dose 1 µM), the cell count in the experiment with 501Mel worked out at 68.6%; with A101D, 70%; in the experiment on A2058, 87.4%; in the experiment with A375, 145%.

Consider `Nc1nc(F)nc2c1ncn2[C@@H]1O[C@H](CO)[C@@H](O)[C@@H]1O` [fludarabine] + COc1ccc(-c2ccc3c(N4CCOCC4)nc(N4C[C@@H](C)O[C@@H](C)C4)nc3n2)cc1CO [KU0063794] (first compound 1 µM, partner dose 0.1 µM), for which the cell count in the experiment with 501Mel worked out at 2.53%; with A101D, 95.9%; in the experiment with A2058, 70.2%; with A375, 33.8%.

For the compound `Nc1ccn([C@@H]2O[C@H](CO)[C@@H](O)C2(F)F)c(=O)n1` [gemcitabine] + CCN(CC)CCCCNc1ncc2cc(-c3cc(OC)cc(OC)c3)c(NC(=O)NC(C)(C)C)nc2n1 [PD173074] (first compound 0.002 µM, partner dose 0.5 µM), the cell count with 501Mel is 87.5%; in the experiment on A101D, 76%; in the experiment with A2058, 50.7%; in the experiment with A375, 113%.

On to `Nc1nc(F)nc2c1ncn2[C@@H]1O[C@H](CO)[C@@H](O)[C@@H]1O` [fludarabine] + COc1cc(N2CCC(N3CCN(C)CC3)CC2)ccc1Nc1ncc(Cl)c(Nc2ccccc2S(=O)(=O)C(C)C)n1 [NVP-TAE684] (first compound 1 µM, partner dose 0.4 µM), for which the cell count in the experiment on 501Mel stood at 0.701%; in the experiment with A101D, 111%; in the experiment on A2058, 59.2%; in the experiment on A375, 21.7%.

In the case of `Nc1nc(F)nc2c1ncn2[C@@H]1O[C@H](CO)[C@@H](O)[C@@H]1O` [fludarabine] + O=c1cc(-c2cccc3c2Sc2ccccc2S3)oc(N2CCOCC2)c1 [KU55933] (first compound 1 µM, partner dose 5 µM), the cell count was 2.11% with 501Mel, 77.4% in the experiment on A101D, 89.5% in the experiment with A2058 and 33.9% with A375.

For `CC(=O)c1c(C)c2cnc(Nc3ccc(N4CCNCC4)cn3)nc2n(C2CCCC2)c1=O` [palbociclib] + COC(=O)c1sccc1S(=O)(=O)Nc1ccc(Nc2ccccc2)cc1OC [GSK0660] (first compound 0.2 µM, partner dose 5 µM), the cell count in the experiment on 501Mel was 51.7%; in the experiment with A101D it was 62.5%; in the experiment on A2058 it was 95.3%; in the experiment with A375, 63.2%.

In the case of `Nc1nc(F)nc2c1ncn2[C@@H]1O[C@H](CO)[C@@H](O)[C@@H]1O` [fludarabine] + CCCCCCCCCCCC1=C(O)C(=O)C=C(O)C1=O [Embelin] (first compound 1 µM, partner dose 6 µM), the cell count was found to be 0.954% in the experiment on 501Mel, 75.3% in the experiment on A101D, 61.6% in the experiment on A2058 and 35.2% with A375.

As for `Nc1nc(F)nc2c1ncn2[C@@H]1O[C@H](CO)[C@@H](O)[C@@H]1O` [fludarabine] + CC(C)CCN1c2nc(Nc3cc(F)c(O)c(F)c3)ncc2N(C)C(=O)C1C [BID1870] (first compound 1 µM, partner dose 1 µM), the cell count in the experiment on 501Mel came out at 8.12%; in the experiment with A101D it was 68.2%; with A2058 it was 73.6%; with A375 it was 43.6%.

With `Nc1ncn([C@H]2C[C@H](O)[C@@H](CO)O2)c(=O)n1` [decitabine] + COC(=O)c1sccc1S(=O)(=O)Nc1ccc(Nc2ccccc2)cc1OC [GSK0660] (first compound 0.5 µM, partner dose 5 µM), the cell count with 501Mel was found to be 93.6%; in the experiment with A101D it was 90.7%; in the experiment with A2058 it was 73.6%; in the experiment on A375, 89.6%.

As to `Nc1ccn([C@@H]2O[C@H](CO)[C@@H](O)C2(F)F)c(=O)n1` [gemcitabine] + O=C(O)C(=O)Nc1sc2c(c1C(=O)O)CCNC2 [TCS401] (first compound 0.002 µM, partner dose 8.33333 µM), the cell count with 501Mel was 89.5%; with A101D, 78.3%; in the experiment on A2058 it was 64.5%; in the experiment with A375, 158%.

For `CC(=O)O[C@@]12CO[C@@H]1C[C@H](O)[C@@]1(C)C(=O)[C@H](O)C3=C(C)[C@@H](OC(=O)[C@H](O)[C@@H](NC(=O)OC(C)(C)C)c4ccccc4)C[C@@](O)([C@@H](OC(=O)c4ccccc4)[C@H]21)C3(C)C` [Docetaxel] + O=c1cc(-c2cccc3c2Sc2ccccc2S3)oc(N2CCOCC2)c1 [KU55933] (first compound 0.0005 µM, partner dose 5 µM), the cell count is 35.9% in the experiment on 501Mel, 36.1% with A101D, 5.35% in the experiment with A2058 and 60.6% with A375.

With `CO[C@H]1C[C@@H]2CC[C@@H](C)[C@@](O)(O2)C(=O)C(=O)N2CCCC[C@H]2C(=O)O[C@H]([C@H](C)C[C@@H]2CC[C@@H](OCCO)[C@H](OC)C2)CC(=O)[C@H](C)/C=C(\C)[C@@H](O)[C@@H](OC)C(=O)[C@H](C)C[C@H](C)/C=C/C=C/C=C/1C` [everolimus] + Oc1nc(-c2ccc(C(F)(F)F)cc2)nc2c1CSCC2 [XAV939] (first compound 0.1 µM, partner dose 10 µM), the cell count is 51.2% in the experiment on 501Mel, 78.2% with A101D, 40.6% in the experiment on A2058 and 92% in the experiment on A375.

For the compound `CC(=O)O[C@@]12CO[C@@H]1C[C@H](O)[C@@]1(C)C(=O)[C@H](O)C3=C(C)[C@@H](OC(=O)[C@H](O)[C@@H](NC(=O)OC(C)(C)C)c4ccccc4)C[C@@](O)([C@@H](OC(=O)c4ccccc4)[C@H]21)C3(C)C` [Docetaxel] + N#Cc1c(O)c2c(-c3ccc(-c4ccccc4O)cc3)csc2[nH]c1=O [A769662] (first compound 0.0005 µM, partner dose 10 µM), the cell count in the experiment on 501Mel stood at 68.5%; with A101D, 75%; in the experiment with A2058, 5.05%; in the experiment with A375 it was 88.2%.

As for `CO[C@H]1C[C@@H]2CC[C@@H](C)[C@@](O)(O2)C(=O)C(=O)N2CCCC[C@H]2C(=O)O[C@H]([C@H](C)C[C@@H]2CC[C@@H](OCCO)[C@H](OC)C2)CC(=O)[C@H](C)/C=C(\C)[C@@H](O)[C@@H](OC)C(=O)[C@H](C)C[C@H](C)/C=C/C=C/C=C/1C` [everolimus] + c1cc(-c2cnn3cc(-c4ccc(OCCN5CCCCC5)cc4)cnc23)ccn1 [Dorsomorphin] (first compound 0.1 µM, partner dose 2 µM), the cell count in the experiment on 501Mel stood at 51.2%; with A101D it was 91.9%; with A2058, 57%; in the experiment with A375, 64%.

On to `Nc1ncn([C@H]2C[C@H](O)[C@@H](CO)O2)c(=O)n1` [decitabine] + Oc1nc(-c2ccc(C(F)(F)F)cc2)nc2c1CSCC2 [XAV939] (first compound 0.5 µM, partner dose 10 µM), for which the cell count in the experiment on 501Mel is 74.2%; in the experiment with A101D it was 83.8%; in the experiment with A2058, 45.6%; in the experiment on A375 it was 95.3%.

In the case of `CO[C@H]1C[C@@H]2CC[C@@H](C)[C@@](O)(O2)C(=O)C(=O)N2CCCC[C@H]2C(=O)O[C@H]([C@H](C)C[C@@H]2CC[C@@H](OCCO)[C@H](OC)C2)CC(=O)[C@H](C)/C=C(\C)[C@@H](O)[C@@H](OC)C(=O)[C@H](C)C[C@H](C)/C=C/C=C/C=C/1C` [everolimus] + COc1ccc(-c2ccc3c(N4CCOCC4)nc(N4C[C@@H](C)O[C@@H](C)C4)nc3n2)cc1CO [KU0063794] (first compound 0.1 µM, partner dose 0.1 µM), the cell count in the experiment with 501Mel worked out at 1.32%; in the experiment on A101D, 61.5%; with A2058, 50.2%; in the experiment with A375, 93.1%.
